Measured values taken from PubChem BioAssay AID2676 (National Center for Advancing Translational Sciences (NCATS), 2010).
In all, about 370,000 compounds went through this assay and about 1,100 (0.3%) were called active. The shares of active, inactive and inconclusive entries below differ from those in the screen. Calls come from the whole dose curve; as a rule, active = well fitted activation curve with a large enough effect; inconclusive = small, poorly fitted or top-dose-only effect; inactive = flat fitted curve, though single readings scatter. A potency beside an inconclusive call is a rough fit, not a confirmed value.

These compounds were tested against Relaxin receptor 1 (Homo sapiens) (UniProt Q9HBX9) (assay: qHTS Assay for Agonists of the Relaxin Receptor RXFP1). Conditions: HEK293T-RXFP1 cAMP TR-FRET, 30 min; series mostly up to 57.5 µM; activation: at the top concentration.
UniProt Q9HBX9, sequence (Q9HBX9 whole entry, looked up): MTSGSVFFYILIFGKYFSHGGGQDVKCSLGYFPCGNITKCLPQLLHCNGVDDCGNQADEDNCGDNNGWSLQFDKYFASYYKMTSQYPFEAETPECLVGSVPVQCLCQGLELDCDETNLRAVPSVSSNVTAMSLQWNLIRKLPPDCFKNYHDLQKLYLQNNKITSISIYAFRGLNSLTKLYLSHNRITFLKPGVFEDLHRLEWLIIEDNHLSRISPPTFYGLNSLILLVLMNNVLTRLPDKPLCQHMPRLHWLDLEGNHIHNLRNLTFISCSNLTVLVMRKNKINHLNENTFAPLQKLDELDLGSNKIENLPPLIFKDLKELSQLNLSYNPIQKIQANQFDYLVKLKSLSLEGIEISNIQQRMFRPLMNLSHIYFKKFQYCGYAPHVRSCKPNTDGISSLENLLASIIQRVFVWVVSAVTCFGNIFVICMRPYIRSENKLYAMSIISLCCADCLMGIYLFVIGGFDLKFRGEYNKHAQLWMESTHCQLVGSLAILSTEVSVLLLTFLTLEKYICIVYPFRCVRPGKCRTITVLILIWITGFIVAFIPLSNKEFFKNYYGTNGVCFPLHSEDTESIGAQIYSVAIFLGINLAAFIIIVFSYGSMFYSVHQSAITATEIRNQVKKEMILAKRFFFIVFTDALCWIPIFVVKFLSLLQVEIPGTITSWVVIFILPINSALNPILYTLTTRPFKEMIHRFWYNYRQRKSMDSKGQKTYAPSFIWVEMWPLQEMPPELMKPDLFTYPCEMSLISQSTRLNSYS
Text: NIH Chemical Genomics Center [NCGC] NIH Molecular Libraries Probe Production Centers Network [MLPCN] MLPCN Grant: R03 MH085705-01A1 Assay Submitter (PI): Alexander Agoulnik NCGC Assay Overview: The relaxin hormone is involved in the variety of biological functions in normal tissues and diseases. The role of relaxin is well-established in female reproduction and parturition, mammary gland and endometrial development, maintenance of myometrial quiescence during pregnancy. Relaxin signaling through its G protein-coupled receptor (GPCR) RXFP1 results in ECM remodeling through regulation of collagen deposition, cell invasiveness, proliferation and overall tissue homeostasis. […] Recombinant human relaxin (rhRlx) is currently being tested in clinical trials as a protective agent in congestive heart failure, in treating severe preeclampsia, and as an anti-fibrotic agent in systemic sclerosis. Upon relaxin binding RXFP1 activation leads to the activation of adenylate cyclase (AC) via Gs. cAMP will activate PKA, which phosphorylates many signaling proteins. Thus, detection of cAMP increase is an easy and reliable indication of relaxin receptor activation. To screen for agonists of the relaxin receptor, a HEK293T cell line stably transfected with RXFP1 was used. RXFP1 activation was assayed by changes in cAMP levels as detected with a time-resolved fluorescence energy transfer (TR-FRET) cAMP detection kit.
NCGC Assay Protocol Summary: This is a cell-based assay for cAMP second messenger response to screen for agonists of the RXFP1 receptor. The assay was conducted in the presence of a PDE4 inhibitor (Ro 20174). The cells were lysed and the cAMP levels were measured with a TR-FRET cAMP kit. Presence of cAMP in the cell lysate disrupts binding between the cryptate-labeled anti-cAMP and d2-labeled cAMP pair, leading to a decrease in the TR-FRET signal. Data were normalized to the controls for basal activity (buffer only) and 100% activity (29 nM porcine relaxin). The EC50 values were determined from concentration-response data modeled with the standard Hill equation 1536-well assay protocol for the HEK293 RXFP1 cAMP assay: (1) Add 3 ul HEK293 RXFP1 cell culture. 2000 cells/well in DMEM/F12, 10% FBS, 1x Pen/Strep (dispensed offline with MultiDrop Combi). (2) Incubate 16-24 hr at 37C, 5% CO2. (3) Add 1 ul 400uM Ro20174 in DPBS, 0.05% BSA, 0.005% Tween 20. (3) Add 23 nl compounds in DMSO solution. Final concentration was 0.5 - 58 uM. (4) Incubate 30 min at 37C, 5% CO2. (5) Add 1 ul cAMP-d2 in lysis buffer (HTRF cAMP HiRange kit, CisBio). (6) Add 1 ul anti-cAMP antibody-cryptate in lysis buffer (HTRF cAMP HiRange kit, CisBio). (7) Incubate 30 min at room temperature. (6) Detect the assay plate in a ViewLux plate reader (PerkinElmer) with Ex=320 nm, Em1=615 nm and Em2=665 nm. Keywords: relaxin, RXFP1, RXFP2, G-protein coupled receptor, cAMP, agonist, high throughput screening, MLSMR, MLSCN, NIH Roadmap, qHTS and NCGC
% is set by controls: 0 for no effect and ±100 for the full control effect; potency is the fitted concentration of half-maximal effect; tags give direction and shape of the fitted curve.
Note: nearly all actives have a fitted effect of over 60% in size.

| Compound | activation | Potency |
| --- | --- | --- |
| O=C(NCC1CCCO1)Nc1cccc(Cl)c1 (stereo not drawn) | inactive: 0.877% |  |
| Cn1ncc([N+](=O)[O-])c1C(=O)N/N=C/c1cccc([N+](=O)[O-])c1 | inactive: 10.5% |  |
| CCC1(C)Cc2c(sc3[nH]c(=S)[nH]c(=S)c23)CO1 (stereo not drawn) |  | inconclusive: 25.1 µM [activator, partial curve] |
| CC(=O)c1sc(Nc2ccccn2)nc1C |  | inconclusive: 22.4 µM [activator, partial curve] |
| CCOC(=O)c1sc(NC(=O)c2ccc(S(=O)(=O)N(C)C)cc2)nc1C |  | inconclusive: 39.8 µM [activator, single point] |
| CCCC1(c2ccccc2)NC(=O)N(CC(=O)Nc2sc(-c3ccccc3)cc2C(=O)OCC)C1=O (stereo not drawn) |  | active: 28.2 µM |
| O=C(COc1ccc2ccccc2c1)Nc1cccc2c1C(=O)NC2=O |  | inconclusive: 39.8 µM [activator, single point] |
| Cc1cccc(C)c1Nc1nn2c(=O)c3cc4c(cc3nc2s1)OCO4 |  | inconclusive: 35.5 µM [activator, single point] |
| CCc1ccc(-c2cn3c(n2)sc2cc(C(=O)NC4CCCCC4)ccc23)cc1 |  | inconclusive: 39.8 µM [activator, single point] |
| O=C(Nc1ccc(OC(=O)c2ccco2)cc1)c1ccco1 | inactive: 0.0441% |  |
| CCOc1ccc(/C(O)=C2/C(=O)C(=O)N(CCOCCO)C2c2cccnc2)cc1 (stereo not drawn) |  | inconclusive: 28.2 µM [activator, partial curve] |
| Cc1ccc(S(=O)(=O)c2nnn3c2nc(NC(C)C)c2sccc23)cc1 |  | inconclusive: 31.6 µM [activator, single point] |
| CC(C)c1nc2sc3c(=S)nc[nH]c3c2c2c1CCC2 |  | inconclusive: 7.08 µM [activator, partial curve] |
| Cc1ccc(NC(=S)Nc2cc(-c3ccccc3)[nH]n2)cc1Cl |  | inconclusive: 39.8 µM [activator, single point] |
| CCNC(=O)Cc1c(OC)ccc2cc(Br)ccc12 |  | inconclusive: 25.1 µM [activator, partial curve] |
| Cc1cc(C)c(C#N)c(SCC(=O)Nc2nnc(-c3ccccc3)s2)n1 |  | inconclusive: 39.8 µM [activator, single point] |
| CC(=O)Nc1cc(C(=O)OCC(=O)c2ccc(C)cc2)ccc1C | inactive: 1.54% |  |
| Cc1nn(CC(=O)NCc2ccc(N(C)C)cc2)c(=O)c2c(C)n(-c3ccc(Cl)cc3)nc12 |  | inconclusive: 39.8 µM [activator, single point] |
| NC(=O)CSCc1ccc(Br)cc1 | inactive: -0.0159% |  |
| COc1ccccc1-n1cnnc1SCC(=O)Nc1nc(C)c(Cl)cc1Cl | inactive: -0.688% |  |
| CCC(=O)N1c2ccccc2CC1C(=O)NCCN1CCN(c2cccc(C(F)(F)F)c2)CC1 (stereo not drawn) | inactive: 0.0376% |  |
| CC(=O)Nc1ccc(NC(=O)c2ccc(-n3c(C)ccc3C)cc2)cc1 | inactive: 1.22% |  |

| Compound | activation | Potency |
| --- | --- | --- |
| CCOc1ccc(C(=O)Nc2c(C(=O)c3ccc(OC)cc3)oc3ccccc23)cc1 |  | inconclusive: 35.5 µM [activator, single point] |
| CCOc1ccc(NC(=O)c2ccc3c(=O)n4nc(Nc5ccccc5C)sc4nc3c2)cc1 | inactive: 2.61% |  |
| O=C(C1=C(O)C(=O)N(CC2CCCO2)C1c1cccc(Cl)c1)c1ccco1 (stereo not drawn) |  | inconclusive: 25.1 µM [activator, partial curve] |
| COc1cc(/C=C2/C(=O)ON=C2C)ccc1OCc1ccccc1F |  | inconclusive: 39.8 µM [activator, single point] |
| COc1cc(/C=C(\C#N)c2nc3ccccc3[nH]2)cc(Cl)c1OCc1ccccc1Cl |  | inconclusive: 22.4 µM [activator, partial curve] |
| N#Cc1cc2c(nc1SCC(=O)Nc1sc3c(c1C#N)CCC3)CCC2 |  | inconclusive: 31.6 µM [activator, single point] |
| CCc1nc(SCC(=O)Nc2nnc(CC)s2)c2c(=O)n(C)c(=O)n(C)c2n1 |  | inconclusive: 12.6 µM [activator, partial curve] |
| CN(C)CCCN1C(=O)C(O)=C(C(=O)c2cc3ccccc3o2)C1c1ccccc1 (stereo not drawn) |  | inconclusive: 15.8 µM [activator, partial curve] |
| Cc1nc2nc(SCC(=O)c3ccccc3)[nH]c2cc1Br |  | inconclusive: 35.5 µM [activator, single point] |
| Cc1ccc(-c2nc3c4ccccc4[nH]c(=O)n3n2)cc1 |  | inconclusive: 31.6 µM [activator, partial curve] |
| CCc1ccccc1NC(=O)Nc1ccc2c(c1)N(CC)C(=O)c1ccccc1S2 |  | inconclusive: 35.5 µM [activator, single point] |
| O=c1oc2cc(O)ccc2cc1-c1nc2c(s1)CCc1ccccc1-2 | inactive: 5.77% |  |
| COc1ccc(Cn2c(=O)c3cccnc3n(CC(=O)Nc3ccc(C)c(F)c3)c2=O)cc1 |  | inconclusive: 39.8 µM [activator, single point] |
| O=c1c2ccc(Cl)cc2[nH]c(=S)n1CCC1=CCCCC1 |  | inconclusive: 35.5 µM [activator, single point] |
| COCCCNC(=O)c1sc2nc3n(c(=O)c2c1C)CCC3 |  | inconclusive: 20 µM [activator, single point] |
| COc1cc(/C=C2\CCc3c2nc2ccccc2c3C(=O)O)cc(OC)c1OC |  | inconclusive: 20 µM [activator, partial curve] |
| O=C1C(=O)N(Cc2cccnc2)C(c2cccc(O)c2)/C1=C(\O)c1ccc2c(c1)OCCO2 (stereo not drawn) |  | inconclusive: 28.2 µM [activator, partial curve] |
| Cc1ccc(Nc2nc3c(S(=O)(=O)c4ccccc4)nnn3c3ccsc23)c(C)c1 |  | inconclusive: 4.47 µM [activator, single point] |
| O=[N+]([O-])c1cccc(S(=O)(=O)N2CCN(S(=O)(=O)N3CCOCC3)CC2)c1 | inactive: 1.55% |  |
| COc1cccc(C(=O)NCC(=O)OCc2cc(=O)n3c(C)csc3n2)c1 |  | inconclusive: 25.1 µM [activator, partial curve] |
| COc1ccc(NC(=O)C2CCN(c3ccc(Sc4ccc(C)cc4)nn3)CC2)cc1 |  | inconclusive: 31.6 µM [activator, partial curve] |
